The values that follow come from ChEMBL document CHEMBL4888484, “Replenishing the malaria drug discovery pipeline: Screening and hit evaluation of the MMV Hit Generation Library 1 (HGL1) against asexual blood stage Plasmodium falciparum ,using a nano luciferase reporter read-out” (2022).

In all, about 150,000 compounds went through this assay and about 540 (0.36%) showed an effect of 50% or more. The list shows a part of the results.

The assay deals with Plasmodium falciparum. Briefly: Primary screen in NF54 nanoGlo assay, in single point, at 2uM, 72h; a lower Z score goes with more inhibition. The format is functional, Erythrocyte. As to conditions: timepoint 72 hour.
As to `O=C(C1CCCN(c2cccc3c2C(=O)N(CC2CCCO2)C3=O)C1)N1CCC(O)(c2cccc(C(F)(F)F)c2)CC1` (stereo unspecified), the % Inhibition (as a rule, the change of the read-out against control, counted positive when it falls) is on record as -10% and the Z score is given as 1.83.

In the case of `CCCN1CC[C@H](CNC(=O)Nc2cc(C)cc(N3CCN(C)CC3)c2)C1`, the “% Inhibition” value is reported as -4% and the Z score is recorded as 0.64.

As for `CC1CCC(O)C(C2CCCN2C(=O)NCCc2cnccn2)C1` (stereo unspecified), the “% Inhibition” value is -9% and the Z score amounted to 1.35.

In the case of `Cc1cc(NC(=O)N2CC[C@@H]3OCC[C@@H]3C2)ccn1`, the “% Inhibition” value was -6% and the Z score is recorded as 1.08.

As for `O=C(Nc1ccc(Nc2ccccc2)cc1)c1ccco1`, the “% Inhibition” value is recorded as -2% and the Z score came out at 0.33.

`COc1cc(Br)c(F)cc1S(=O)(=O)NCCNS(=O)(=O)N(C)C`: the “% Inhibition” value is reported as -3% and the Z score is given as 0.55.

Regarding `CCCCN(C)C(=O)C1CCN(c2nnc(C)c3c(C)n(-c4ccc(Cl)cc4)nc23)CC1`, the “% Inhibition” value amounted to 16% and the Z score is -1.82.

For `O=C(CN1CCN(c2cccc(Cl)c2)C1=O)NCc1ccco1`, the “% Inhibition” value was -16% and the Z score came out at 1.85.

With `COc1ccc(NC(=O)c2c(C)noc2C)cn1`, the “% Inhibition” value was found to be 11% and the Z score is listed as -1.29.

For the compound `COC(=O)c1c(-c2cccc(Cl)c2)noc1Nc1ccc2c(c1)OCO2`, the “% Inhibition” value was -3% and the Z score is 0.6.

As to `Cc1coc(-c2cc(NC(=O)CC(F)(F)F)ccc2C)n1`, the “% Inhibition” value is given as -11% and the Z score came to 1.47.

Consider `COc1ccc(OC)c(CNC(=O)Cn2c(=O)nc(-c3ccccc3)c3cc(Cl)ccc32)c1`, for which the “% Inhibition” value is recorded as -11% and the Z score is reported as 1.09.

As for `C[C@@H](c1ccc(Cl)cc1)N(Cc1nc(C(=O)O)co1)C1CC1`, the “% Inhibition” value came to 4% and the Z score is given as -0.89.

`CN(Cc1ccnn1C)C(=O)c1c[nH]c(C(F)(F)F)c1`: the “% Inhibition” value is reported as 1% and the Z score is -0.16.

Regarding `Cc1cnn(C2(C(=O)O)CCN(c3cnc4ccccc4n3)CC2)c1`, the “% Inhibition” value is -7% and the Z score amounted to 1.11.

As for `CN1CCN(c2nc(-c3ccccc3)ns2)C[C@@]12CCOC2`, the “% Inhibition” value is -8% and the Z score was 1.32.

For `Cn1cc(CNc2cccc(OCCn3cccn3)c2)cn1`, the “% Inhibition” value was -7% and the Z score turned out to be 0.84.

In the case of `CC(C)(NC(=O)c1ccc(-n2cnnn2)cc1Cl)C1CC1`, the “% Inhibition” value was -15% and the Z score was 2.47.

On to `O=C(NCc1nnc(C2CC2)s1)C1C2CCCC21` (stereo unspecified), for which the “% Inhibition” value is -5% and the Z score worked out at 0.98.

On to `O=C(Nc1cc(-c2ccsc2)no1)c1ccc2c(c1)OCO2`, for which the “% Inhibition” value is -13% and the Z score came to 1.26.

In the case of `COc1ccccc1NC(=O)CN1CCC2(CCC(=O)N2C)CC1`, the “% Inhibition” value was -6% and the Z score is 0.77.

Consider `CC(=O)N[C@@H]1CC[C@H]2CCOc3ccccc3C(=O)N3CCN(Cc4ccncc4)C[C@H]3C(=O)NC[C@H]1O2`, for which the “% Inhibition” value is recorded as -14% and the Z score is 2.31.

On to `CC(=O)NC1CN(S(=O)(=O)c2sc(C)nc2C)C1`, for which the “% Inhibition” value is on record as -4% and the Z score is reported as 0.52.

Turning to `C[C@H](NS(=O)(=O)N1CCN(C)CC1)c1cccnc1`, the “% Inhibition” value is -11% and the Z score was 2.2.

Take `Cc1noc2ncc(NC(=O)CCCn3cncn3)cc12`: the “% Inhibition” value is recorded as -5% and the Z score was 1.07.

As to `CCN(C(=O)c1cc2c(cc1OC)CCC2)[C@H]1CCS(=O)(=O)C1`, the “% Inhibition” value is on record as -1% and the Z score is recorded as 0.25.

In the case of `c1ccc(-n2nnnc2NC2CCN(CC3CC3)CC2)cc1`, the “% Inhibition” value is -12% and the Z score turned out to be 1.64.

Consider `COCc1nsc(N2CCC3(CC2)C[C@@H]3C(=O)N2CCCC2)n1`, for which the “% Inhibition” value is -9% and the Z score stood at 1.4.

As to `CCCc1nc(CN(CC)Cc2cc(C)c(OC(C)=O)c(C)c2)no1`, the “% Inhibition” value is on record as -9% and the Z score was determined as 1.25.

With `Cc1nc(C)c(Cn2cnccc2=O)s1`, the “% Inhibition” value amounted to 6% and the Z score was -0.74.

On to `COc1ccc(-c2ccc3[nH]c(=O)c(C(=O)O)cc3c2)cc1`, for which the “% Inhibition” value was determined as 1% and the Z score was -0.17.

For `CCOC(=O)c1cc(-c2ccccc2)n(-c2cccc(C(=O)NCc3ccc(OC)cc3)c2)c1C`, the “% Inhibition” value is recorded as 15% and the Z score is -1.74.

For the compound `Cc1noc(C[C@H]2CCOC3(CCN(C(=O)c4ccc5ccccc5n4)CC3)C2)n1`, the “% Inhibition” value is recorded as -11% and the Z score stood at 1.54.

`Cc1cnn(C[C@H]2CCCN2c2nccc(C(F)(F)F)n2)c1`: the “% Inhibition” value was found to be 2% and the Z score is on record as -0.29.

For `CC(C)c1nncn1CCNC(=O)c1cccc(-n2cccn2)n1`, the “% Inhibition” value was -10% and the Z score amounted to 0.96.

`COCCCNC(=O)[C@]1(C)Cn2nc(-c3ccccc3)cc2C(=O)N1Cc1ccccc1OC`: the “% Inhibition” value is recorded as 4% and the Z score was -0.71.

As to `Cc1cc(C(=O)N2CC(C)N(CC#N)C(C)C2)ns1` (stereo unspecified), the “% Inhibition” value came to 12% and the Z score is listed as -1.42.

As to `Cc1nc[nH]c1C(=O)N1CCC[C@@]2(CCC(=O)N(Cc3ccccc3)C2)C1`, the “% Inhibition” value is reported as -13% and the Z score turned out to be 1.96.

On to `C[C@@H]1CN(C(=O)CN2CCCn3nc(C#N)cc3C2)C[C@H](C)O1`, for which the “% Inhibition” value is on record as -5% and the Z score was found to be 0.89.

For `O=C(c1n[nH]c2c1CCc1ccccc1-2)N1CCCCCC1`, the “% Inhibition” value is -15% and the Z score came to 1.3.

Regarding `CC[C@@H](C(=O)N1CCc2cnccc21)N1CCCC1=O`, the “% Inhibition” value is recorded as -11% and the Z score is recorded as 1.07.

For `CN(C(=O)Cc1ccc(F)c(F)c1)c1ccc(-c2ccccc2)nn1`, the “% Inhibition” value is on record as -14% and the Z score was 1.64.

For the compound `Cc1ccc(S(=O)(=O)/N=C(\CN2CCOCC2)N2CCCN(S(=O)(=O)c3ccc(C)cc3)[C@H]2C(C)C)cc1`, the “% Inhibition” value is -3% and the Z score amounted to 0.41.

Consider `Cc1cc(C)n(CCC(=O)N2CC(F)(F)C[C@H]2c2nc(C)no2)n1`, for which the “% Inhibition” value is -4% and the Z score is reported as 0.75.

For `CN(CC1(C)CCOCC1)C(=O)c1ccc(Cl)s1`, the “% Inhibition” value was 12% and the Z score is reported as -2.01.

As for `CC1CN(C(=O)c2cc(-c3cccs3)nc3ccccc23)CC(C)O1` (stereo unspecified), the “% Inhibition” value was found to be 5% and the Z score was -0.44.

With `COc1ccc(CCN[C@H](C(=O)NC(N)=O)C(C)C)cc1OC`, the “% Inhibition” value amounted to 1% and the Z score is -0.16.

`Cc1nc(CN[C@@H](c2cccc(F)c2)c2cccc(Cl)c2)no1`: the “% Inhibition” value was -16% and the Z score is given as 2.06.

Consider `CC(CNC(=O)N1CCC2(CCCC2)C1)N1CCOCC1C` (stereo unspecified), for which the “% Inhibition” value is given as -6% and the Z score is on record as 0.86.

With `COc1cccc([C@@H]2CCCCN2C(=O)c2nc(N3CCCC3)nc3c2CCCC3)c1`, the “% Inhibition” value is -16% and the Z score was 2.47.

As for `COC(=O)c1ccc(C)c(NC(=O)N(C)Cc2nc(C)c[nH]2)c1`, the “% Inhibition” value is given as 2% and the Z score is -0.22.

Take `O=C(c1cc(COc2cccc3cccnc23)on1)N1CCCCCCC1`: the “% Inhibition” value is listed as -7% and the Z score is 0.9.

`CC[C@@H](NC(=O)c1ccc(C)c(B2OC(C)(C)C(C)(C)O2)c1)C(N)=O`: the “% Inhibition” value was -7% and the Z score stood at 1.25.
